In patent EP1205473A1, “VESAMICOL PIPERAZINE DERIVATIVES AND DRUGS CONTAINING THE SAME” (DAIICHI RADIOISOTOPE LABORATORIES, LTD., priority 1999, dated 2001):
At least one structure is not confirmed: it was looked up by name or label, or the drawing left a doubt.

These molecules were tested against adrenaline α1 receptors (assay: Receptor binding test: inhibition of tritium-labeled prazosin binding to brain homogenate). Conditions: read-out: Inhibitive concentration at 50% (IC50), Adrenaline α1 receptor; Table 5; incubated 30 minutes at 37°C; unit inferred.
Parameters: species or system Male Wistar rats

`Cc1ccccc1N1CCN([C@@H]2Cc3c(I)cccc3C[C@H]2O)CC1` (racemic) [DRE334, (±)-trans-5-iodo-2-hydroxy-3-[4-[2-methylphenyl]piperazinyl]tetralin] and `Cc1ccccc1N1CCN([C@@H]2Cc3cccc(I)c3C[C@H]2O)CC1` (racemic) [DRE335, (+)-trans-8-iodo-2-hydroxy-3-[4-[2-methylphenyl]piperazinyl]tetralin] are within 1.5-fold of each other in IC50: 21.8 nM for the first, 16.4 nM for the second.

First: Cc1ccc(C)c(N2CCN([C@@H]3Cc4c(I)cccc4C[C@H]3O)CC2)c1 (racemic) [DRE348, (±)-trans-5-iodo-2-hydroxy-3-[4-[2,5-dimethylphenyl]piperazinyl]tetralin]
Second: Cc1cccc(N2CCN([C@@H]3Cc4c(I)cccc4C[C@H]3O)CC2)c1C (racemic) [DRE354, (±)-trans-5-iodo-2-hydroxy-3-[4-[2,3-dimethylphenyl]piperazinyl]tetralin]
The IC50 of the first is 2.5-fold lower: 55.2 nM for the first, 139 nM for the second.

Going from `CCc1ccccc1N1CCN([C@@H]2Cc3c(I)cccc3C[C@H]2O)CC1` (racemic) [DRE353, (±)-trans-5-iodo-2-hydroxy-3-[4-[2-ethylphenyl]piperazinyl]tetralin] to `Cc1ccccc1N1CCN([C@@H]2Cc3c(I)cccc3C[C@H]2O)CC1` (single isomer, unassigned) [DRE342, (-)-trans-5-iodo-2-hydroxy-3-[4-[2-methylphenyl]piperazinyl]tetralin], the IC50 falls from 147 nM to 20.9 nM (7-fold).

First: Cc1ccc(C)c(N2CCN([C@@H]3Cc4cc(I)ccc4C[C@H]3O)CC2)c1 (racemic) [DRE365, (±)-trans-6-iodo-2-hydroxy-3-[4-[2,5-dimethylphenyl]piperazinyl]tetralin]
Second: Cc1ccc(C)c(N2CCN([C@@H]3Cc4ccc(I)cc4C[C@H]3O)CC2)c1 (racemic) [DRE366, (±)-trans-7-iodo-2-hydroxy-3-[4-[2,5-dimethylphenyl]-piperazinyl]tetralin]
The IC50 of the first is 2.3-fold higher: 122 nM for the first, 53.6 nM for the second. The second is the more potent here.

`Cc1ccc(N2CCN([C@@H]3Cc4c(I)cccc4C[C@H]3O)CC2)cc1` (racemic) [DRF381, (±)-trans-5-iodo-2-hydroxy-3-[4-[4-methylphenyl]piperazinyl]tetralin] and `Cc1ccc(C)c(N2CCN([C@@H]3Cc4c(I)cccc4C[C@H]3O)CC2)c1` (single isomer, unassigned) [DRE350, (-)-trans-5-iodo-2-hydroxy-3-[4-[2,5-dimethylphenyl]piperazinyl]tetralin] are within 1.5-fold of each other in IC50: 75.9 nM for the first, 61.2 nM for the second.

Going from `Cc1cccc(C)c1N1CCN([C@@H]2Cc3c(I)cccc3C[C@H]2O)CC1` (racemic) [DRF382, (±)-trans-5-iodo-2-hydroxy-3-[4-[2,6-dimethylphenyl]piperazinyl]tetralin] to `Cc1ccc(C)c(N2CCN([C@@H]3Cc4c(I)cccc4C[C@H]3O)CC2)c1` (single isomer, unassigned) [DRE351, (+)-trans-5-iodo-2-hydroxy-3-[4-[2,5-dimethylphenyl]piperazinyl]tetralin], the IC50 rises from 69.9 nM to 149 nM (2.1-fold).

With `Cc1ccc(I)cc1N1CCN([C@@H]2Cc3c(N)cccc3C[C@H]2O)CC1` (racemic) [DRF383, (±)-trans-5-amino-2-hydroxy-3-[4-[5-iodo-2-methylphenyl]-piperazinyl]tetralin] the IC50 was 147 nM.

Same assay, conditions: read-out: inhibitive concentration at 50% (IC50), Receptor Alpha-1; Table 9; high purity derivatives; unit inferred

First: COc1ccccc1N1CCN([C@@H]2Cc3c(I)cccc3C[C@H]2O)CC1 (racemic) [DRF400, (±)-trans-5-iodo-2-hydroxy-3-[4-[2-methoxyphenyl]piperazinyl]tetralin]
Second: Nc1ccccc1N1CCN([C@@H]2Cc3c(I)cccc3C[C@H]2O)CC1 (racemic) [DRF402, (±)-trans-5-iodo-2-hydroxy-3-[4-[2-aminophenyl]piperazinyl]tetralin]
The IC50 of the first is 2.6-fold higher: 15.6 nM for the first, 5.89 nM for the second.

First: CC(=O)Nc1ccccc1N1CCN([C@@H]2Cc3c(I)cccc3C[C@H]2O)CC1 (racemic) [DRF401, (±)-trans-5-iodo-2-hydroxy-3-[4-[N-acetyl-2-aminophenyl]-piperazinyl]tetralin]
Second: Oc1ccccc1N1CCN([C@@H]2Cc3c(I)cccc3C[C@H]2O)CC1 (racemic) [DRF403, (±)-trans-5-iodo-2-hydroxy-3-[4-[2-hydroxyphenyl]piperazinyl]tetralin]
The IC50 of the first is 2.6-fold higher: 13.1 nM for the first, 5.11 nM for the second.

Going from `Nc1ccccc1N1CCN([C@@H]2Cc3cc(I)ccc3C[C@H]2O)CC1` (racemic) [DRG446, (±)-trans-6-iodo-2-hydroxy-3-[4-[2-aminophenyl]piperazinyl]tetralin] to `O[C@@H]1Cc2cc(I)ccc2C[C@H]1N1CCN(c2ccccc2)CC1` (racemic) [DRG449, (±)-trans-7-iodo-2-hydroxy-3-[4-phenylpiperazinyl]tetralin], the IC50 rises from 13.2 nM to 118 nM (8.9-fold). The first is the more potent here.

For `Nc1ccccc1N1CCN([C@@H]2Cc3c(I)cccc3C[C@H]2O)CC1` (single isomer, unassigned) [DRF419, (-)-trans-5-iodo-2-hydroxy-3-[4-[2-aminophenyl]piperazinyl]tetralin], the IC50 was 3.1 nM.
